Data published in patent US9908927B2, “Single-chain trail-receptor agonist proteins” (AbbVie Inc., priority 2014, dated 2018).

Legend:
[1] = Half-life determination in NMRI mice; assay type: in vivo
Protocol: Molecules A-D are each made up of two polypeptides covalently linked by interchain disulfide bonds. The number of glycosites and hinge cysteines (resulting in interchain disulfide bonds between proteins) were tested in order to determine the effect that altering these characteristics has on the half-life of these compounds.
Female NMRI mice were treated with 1.2 mg/kg bw and/or with 4 mg/kg bw of the specified compounds as a single intravenous bolus injection. Whole blood was collected before application (predose), and up to 168 hours after test item administration. Serum was prepared and samples were stored at −80° C. until determination of serum concentrations. Pharmacokinetic parameters were calculated using the mean serum concentrations and the pharmacokinetic evaluation program PK Solutions Version 2.0 for non-compartmental pharmacokinetic data analysis (Summit Research Services, Montrose, Colo.). PK Solutions is an automated, Excel-based application, which computes pharmacokinetic parameters from concentration-time data obtained from analysis of e.g. biological samples following intravenous or extra-vascular routes of administration. PK Solutions calculates results without presuming any specific compartmental model.
Quantitation of the test items in serum was performed with an ELISA-assay detecting the individual TRAIL-receptor agonists shown in Table 7 independent of a Strep-Tag being part of the molecules.

[2] = test system: NCI-H2110; assay: Tumor cell viability, CellTiter-Glo; assay type: cell-based, human; conditions: NCI-H2110 (NSCLC), 24 hours
Protocol: (§1) Tumor cells were seeded at 10,000 cells/well in 96-well plates in the recommended media containing 10% FBS and treated with a TRAIL receptor agonist protein made up of two polypeptides having the amino acid sequence set forth in SEQ ID NO: 19 for 24 hours at 37° C. in a humidified, 5% CO2 atmosphere. Cell viability was subsequently assessed using CellTiter-Glo® reagent as described by the manufacturer's instructions (Promega; Madison, Wis.). IC50 values were determined by non-linear regression analysis of the concentration response data normalized to non-treated control cells.

[3] = test system: OCI-Ly8; assay: Tumor cell viability, CellTiter-Glo; assay type: cell-based, human; conditions: OCI-Ly8 (NHL), 24 hours
Protocol: as §1

[4] = test system: SU-DHL-4; assay: Tumor cell viability, CellTiter-Glo; assay type: cell-based, human; conditions: SU-DHL-4 (NHL), 24 hours
Protocol: as §1

[5] = test system: OCI-Ly2; assay: Tumor cell viability, CellTiter-Glo; assay type: cell-based, human; conditions: OCI-Ly2 (NHL), 24 hours
Protocol: as §1

[6] = test system: PANC-1; assay: Tumor cell viability, CellTiter-Glo; assay type: cell-based, human; conditions: PANC-1 (Pancreatic), 24 hours
Protocol: as §1

[7] = test system: HCT 116-GFP; assay: Tumor cell viability, CellTiter-Glo; assay type: cell-based, human; conditions: HCT 116-GFP (CRC), 24 hours
Protocol: as §1

[8] = test system: OCI-AML3; assay: Tumor cell viability, CellTiter-Glo; assay type: cell-based, human; conditions: OCI-AML3 (AML), 24 hours
Protocol: as §1

[9] = test system: SET-2; assay: Tumor cell viability, CellTiter-Glo; assay type: cell-based, human; conditions: SET-2 (AML), 24 hours
Protocol: as §1

[10] = test system: OCI-LY3; assay: Tumor cell viability, CellTiter-Glo; assay type: cell-based, human; conditions: OCI-LY3 (NHL), 24 hours
Protocol: as §1

[11] = test system: SHI-1; assay: Tumor cell viability, CellTiter-Glo; assay type: cell-based, human; conditions: SHI-1 (AML), 24 hours
Protocol: as §1

[12] = test system: MV4-11; assay: Tumor cell viability, CellTiter-Glo; assay type: cell-based, human; conditions: MV4-11 (AML), 24 hours
Protocol: as §1

[13] = test system: MDA-MB-231; assay: Tumor cell viability, CellTiter-Glo; assay type: cell-based, human; conditions: MDA-MB-231 (BRCa), 24 hours
Protocol: as §1

[14] = test system: SW48; assay: Tumor cell viability, CellTiter-Glo; assay type: cell-based, human; conditions: SW48 (CRC), 24 hours
Protocol: as §1

[15] = test system: RC-K8; assay: Tumor cell viability, CellTiter-Glo; assay type: cell-based, human; conditions: RC-K8 (NHL), 24 hours
Protocol: as §1

[16] = test system: NCI-H727; assay: Tumor cell viability, CellTiter-Glo; assay type: cell-based, human; conditions: NCI-H727 (NSCLC), 24 hours
Protocol: as §1

[17] = test system: NCI-H460; assay: Tumor cell viability, CellTiter-Glo; assay type: cell-based, human; conditions: NCI-H460 (NSCLC), 24 hours
Protocol: as §1

[18] = test system: HEL; assay: Tumor cell viability, CellTiter-Glo; assay type: cell-based, human; conditions: HEL (AML), 24 hours
Protocol: as §1

[19] = test system: THP-1; assay: Tumor cell viability, CellTiter-Glo; assay type: cell-based, human; conditions: THP-1 (AML), 24 hours
Protocol: as §1

[20] = test system: HCC4006; assay: Tumor cell viability, CellTiter-Glo; assay type: cell-based, human; conditions: HCC4006 (NSCLC), 24 hours
Protocol: as §1

[21] = test system: OCI-LY19; assay: Tumor cell viability, CellTiter-Glo; assay type: cell-based, human; conditions: OCI-LY19 (NHL), 24 hours
Protocol: as §1

[22] = test system: HCC827; assay: Tumor cell viability, CellTiter-Glo; assay type: cell-based, human; conditions: HCC827 (NSCLC), 24 hours
Protocol: as §1

[23] = test system: HeyA8-GFP; assay: Tumor cell viability, CellTiter-Glo; assay type: cell-based, human; conditions: HeyA8-GFP (Ovarian), 24 hours
Protocol: as §1

[24] = test system: NCI-H647; assay: Tumor cell viability, CellTiter-Glo; assay type: cell-based, human; conditions: NCI-H647 (NSCLC), 24 hours
Protocol: as §1

[25] = test system: CTG-0136 (esophageal); assay: Patient-derived xenograft model CTG-0136; assay type: in vivo; conditions: CTG-0136 (esophageal) PDX, NSG female mice; 3 mkd dosed IP, Q2Dx5
Protocol: The effect of a TRAIL receptor agonist protein made up of two polypeptides having the amino acid sequence set forth in SEQ ID NO:19 on tumor growth was also evaluated in patient-derived xenograft models CTG-0069 (colorectal), CTG-0167 (NSCLC), CTG-0293 (pancreatic), CTG-0714 (sarcoma), CTG-0136 (esophageal), CTG-485 (gastric), and CTG-0785 (Ewing's sarcoma) implanted in NSG female mice (Champions Oncology; Hackensack, N.J.). Briefly, tumor fragments were propagated subcutaneously into the right hind flank of female NSG mice on study day 0. Administration of a TRAIL receptor agonist protein made up of two polypeptides having the amino acid sequence set forth in SEQ ID NO: 19 (3 mkd dosed IP, Q2Dx5) was initiated at the time of size match. Tumor volume was measured for the duration of the experiment until the mean tumor volume in each group reached an endpoint of >2000 mm^3 or 60 days.

B1: SEQ ID NO: 19: made up of two polypeptides of SEQ ID NO: 19; three hinge cysteines, N297S aglycosylated CH2, glycosites at positions 168 and 337 (protein)
chain: QRVAAHITGTRGRSNTLSSPNSKNEKALGRKINSWESSRSGHSFLSNLHLRNGELVIHEKGFYYIYSQTYFRFQEEIKENTKNDKQMVQYIYKYTSYPDPILLMKSARNSCWSKDAEYGLYSIYQGGIFELKENDRIFVSVTNEHLIDMDHEASFFGAFLVGGSGSGNGSRVAAHITGTRGRSNTLSSPNSKNEKALGRKINSWESSRSGHSFLSNLHLRNGELVIHEKGFYYIYSQTYFRFQEEIKENTKNDKQMVQYIYKYTSYPDPILLMKSARNSCWSKDAEYGLYSIYQGGIFELKENDRIFVSVTNEHLIDMDHEASFFGAFLVGGSGSGNGSRVAAHITGTRGRSNTLSSPNSKNEKALGRKINSWESSRSGHSFLSNLHLRNGELVIHEKGFYYIYSQTYFRFQEEIKENTKNDKQMVQYIYKYTSYPDPILLMKSARNSCWSKDAEYGLYSIYQGGIFELKENDRIFVSVTNEHLIDMDHEASFFGAFLVGGPGSSSSSSSG[human IgG1 Fc with N297S (EU numbers) not written out]
modifications: homodimer
in vivo stability (as judged by compound half-life) ([1]; NMRI mice, comparison between Molecules A-D): enhanced when compared to Molecule A | Terminal Half-life 1.2 mg/kg i.v. ([1]; female NMRI mice, 1.2 mg/kg single intravenous bolus, serum, ELISA): 28.28 h | Terminal Half-life 4 mg/kg i.v. ([1]; female NMRI mice, 4 mg/kg single intravenous bolus, serum, ELISA): 33.94 h | IC50 [2]: 0.3142 µg/mL | IC50 [3]: 0.00749 µg/mL | IC50 [4]: 1 µg/mL | IC50 [5]: 0.01898 µg/mL | IC50 [6]: >1 µg/mL | IC50 [7]: 0.337 µg/mL | IC50 [8]: 1 µg/mL | IC50 [9]: 0.3848 µg/mL | IC50 [10]: 1 µg/mL | IC50 [11]: 1 µg/mL | IC50 [12]: 0.31255 µg/mL | IC50 [13]: 0.235 µg/mL | IC50 [14]: 0.0061 µg/mL | IC50 [15]: 1 µg/mL | IC50 [16]: 3.178 µg/mL | IC50 [17]: 0.03685 µg/mL | IC50 [18]: 1 µg/mL | IC50 [19]: 1 µg/mL | IC50 [20]: 0.40724 µg/mL | IC50 [21]: 0.02634 µg/mL | IC50 [22]: 2.8245 µg/mL | IC50 [23]: 0.141 µg/mL | IC50 [24]: 0.02475 µg/mL | effect on tumor growth [25]: significant tumor growth inhibition
